The record followed here is paper PMC4336329 (PLoS ONE, 2015).

The campaign covered roughly 310,000 compounds. About 14,000 (4.5%) showed an effect of 50% or more. Effects have a minus sign here. Some of the results follow.
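Further: peak tail current of the secondary pulse compared with the same well before compound.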

For this experiment, the target named is human ether-à-go-go-related gene (hERG) potassium channel (human, UniProt Q12809). As to the kind of experiment: primary screen, population patch clamp on CHO cells stably expressing hERG.
human ether-à-go-go-related gene (hERG) potassium channel, sequence (Q12809 whole entry, looked up): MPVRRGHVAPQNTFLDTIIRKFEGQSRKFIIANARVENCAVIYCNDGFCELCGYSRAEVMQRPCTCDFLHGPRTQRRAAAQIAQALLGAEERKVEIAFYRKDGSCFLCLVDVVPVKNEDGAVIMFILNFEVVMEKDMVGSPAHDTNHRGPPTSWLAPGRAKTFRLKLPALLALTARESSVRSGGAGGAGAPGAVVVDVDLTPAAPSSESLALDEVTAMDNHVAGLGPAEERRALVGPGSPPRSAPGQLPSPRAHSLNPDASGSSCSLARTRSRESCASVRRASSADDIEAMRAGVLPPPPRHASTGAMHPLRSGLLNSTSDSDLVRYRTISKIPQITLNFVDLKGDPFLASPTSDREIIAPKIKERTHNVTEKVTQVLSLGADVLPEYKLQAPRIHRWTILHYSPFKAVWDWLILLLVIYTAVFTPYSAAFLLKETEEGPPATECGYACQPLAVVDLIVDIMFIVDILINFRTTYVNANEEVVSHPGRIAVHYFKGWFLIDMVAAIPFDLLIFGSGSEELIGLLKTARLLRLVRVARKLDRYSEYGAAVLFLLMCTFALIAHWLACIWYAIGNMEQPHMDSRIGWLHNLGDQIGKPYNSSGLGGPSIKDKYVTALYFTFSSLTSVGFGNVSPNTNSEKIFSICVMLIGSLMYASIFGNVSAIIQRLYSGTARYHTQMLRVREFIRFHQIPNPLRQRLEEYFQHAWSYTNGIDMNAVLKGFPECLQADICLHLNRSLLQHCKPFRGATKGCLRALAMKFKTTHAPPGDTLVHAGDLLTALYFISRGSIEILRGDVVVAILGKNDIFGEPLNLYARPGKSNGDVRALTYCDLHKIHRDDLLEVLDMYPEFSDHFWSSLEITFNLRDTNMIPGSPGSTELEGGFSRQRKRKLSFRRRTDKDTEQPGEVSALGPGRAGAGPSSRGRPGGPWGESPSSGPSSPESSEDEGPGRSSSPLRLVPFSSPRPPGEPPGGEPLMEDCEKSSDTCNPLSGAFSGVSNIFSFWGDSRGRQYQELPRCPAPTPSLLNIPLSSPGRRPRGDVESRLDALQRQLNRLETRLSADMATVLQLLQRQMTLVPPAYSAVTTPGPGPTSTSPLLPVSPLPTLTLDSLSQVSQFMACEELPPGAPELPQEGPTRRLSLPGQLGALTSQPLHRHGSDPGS
With `CC(C)(C)OC(=O)N1CCC[C@H]1C(=O)N/N=C/c1ccc2ncccc2c1`, the “hERG current change (%, negative = inhibition) at 10uM” value is listed as 5.87%.

On to `Cc1ccccc1Nc1nc(N)nc(CSc2nnc3ccccn23)n1`, for which the “hERG current change (%, negative = inhibition) at 10uM” value is reported as 6.08%. Under `Cc1nc2ccccn2c1P(=O)(N1CCCCC1)N1CCCCC1` stands -6.79%; under `CC(Cn1cncn1)C(=O)N1CCN(S(=O)(=O)c2ccccc2)CC1` (centres unmarked), 20.5%.

As to `CC(=O)Nc1cc(NC(C)=O)cc(C(=O)OCC(=O)Nc2ccc(S(=O)(=O)NC3=NCCCCC3)cc2)c1`, the “hERG current change (%, negative = inhibition) at 10uM” value is listed as 2.8%.

For the molecule `Cc1onc(-c2ccccc2)c1C(=O)NCCc1ccncc1`, the “hERG current change (%, negative = inhibition) at 10uM” value worked out at 9.21%.

As for `O=C1c2ccccc2C(=O)N1OCc1c(F)cccc1Cl`, the “hERG current change (%, negative = inhibition) at 10uM” value was found to be 3.25%. For `CCOC(=O)c1ccc2nc(NC(C)=O)sc2c1`, the “hERG current change (%, negative = inhibition) at 10uM” value was 12.6%. Consider `CC1(C)CC(=O)C(N=Nc2ccc(Cl)cc2)=C(O)C1`, for which the “hERG current change (%, negative = inhibition) at 10uM” value worked out at 5.31%. For `O=C(N1CCc2[nH]c3ccccc3c2C1)C(F)(F)F` the value was 15.7%; for `CCc1ccccc1NC(=O)CSc1nnc([C@@H](NC(=O)OC(C)(C)C)C(C)C)o1`, -17.1%; for `Cc1cc(C(=O)N(C)Cc2c(F)cccc2Cl)c2ccccc2n1`, -34.4%. Under `COc1ccc2oc(C(=O)OCC(=O)N(C)CC(=O)Nc3ccc(F)cc3)c(C)c2c1` stands -18.2%; under `Nn1c(SCC(=O)Nc2ccc3c(c2)OCCO3)nnc(CCC(=O)O)c1=O`, 15.6%. For `O=C(NC(C(=O)N/N=C/c1ccccc1)c1n[nH]c(=O)c2ccccc12)c1ccccc1` (centres unmarked) the value was 1.35%; for `O=C(Nc1ccccc1)c1c(F)c(F)c(F)c(F)c1F`, -2.93%. Regarding `COc1cccc(NS(=O)(=O)c2c(C)nc3sccn3c2=O)c1`, the “hERG current change (%, negative = inhibition) at 10uM” value is -0.632%.

In the case of `Cc1cc(-c2n[nH]c(=S)n2/N=C/c2ccccc2[N+](=O)[O-])n[nH]1`, the “hERG current change (%, negative = inhibition) at 10uM” value was 10.2%. Take `Cc1c(C(=O)OCC(=O)N(C)Cc2ccccc2)oc2ccccc12`: the “hERG current change (%, negative = inhibition) at 10uM” value is on record as -29.4%. For the molecule `O=C(NCCN1CCOCC1)c1cc(-c2ccc(F)cc2)nc2ccccc12`, the “hERG current change (%, negative = inhibition) at 10uM” value is on record as -34.2%.

On to `COc1cccc(/C=c2\s/c(=C\C(=O)C(C)(C)C)[nH]c2=O)c1`, for which the “hERG current change (%, negative = inhibition) at 10uM” value is listed as 6.02%. Under `CC1CCN(C(=O)c2scc3c2OCCO3)CC1` stands -9.26%; under `C=CCCCN(Cc1ccccc1)S(=O)(=O)c1ccccc1Br`, 11.3%.

For `Cc1ccc(C)c(NC(=O)C(=O)NCc2ccccn2)c1`, the “hERG current change (%, negative = inhibition) at 10uM” value is -11.2%. For `O=C(CSCCO)Nc1ccc(C2CCCCC2)cc1` the value was -11.9%; for `CC(NC(=O)CN1C(=O)NC2(CCCC2)C1=O)c1ccc2ccccc2c1` (centres unmarked), -0.803%. Under `Cc1ccc2nc(SCC(=O)Nc3ccc(C)c([N+](=O)[O-])c3)[nH]c2c1` stands 9.81%.

With `N#CC12CCCCC1CC1CCCCC1(C#N)N2Cc1cccnc1` (centres unmarked), the “hERG current change (%, negative = inhibition) at 10uM” value was -35.5%. Under `Cc1ccccc1NC(=O)c1nn(-c2ccc(F)c(F)c2)ccc1=O` stands 5.07%. For `CCn1c(SCC(=O)Nc2sc3c(c2C#N)CCCC3)nnc1-c1ccncc1` the value was -63.5%; for `CCN(CC)C(=O)C1CCN(c2ncnc3c2cnn3-c2ccc(C)cc2C)CC1`, -6.83%; for `Cc1cc(Cl)c(S(=O)(=O)N2CC(C)OC(C)C2)cc1OCC(N)=O` (centres unmarked), -19.8%. For `Cc1cc(NC(=O)CSc2ccc3nnc(-c4cccc(F)c4)n3n2)no1` the value was -14.3%; for `CCC(CC)COC(=O)C(C#N)c1nc2ccccc2nc1N1CCN(CC)CC1` (centres unmarked), -72.7%; for `COc1ccc(OC)c(NC(=O)c2ccc3c(=O)n(CCc4ccccc4)c(=S)[nH]c3c2)c1`, 8.23%.

`CC1CCC(C(C)C)C2=C1C(C#N)(C#N)C(C#N)(C#N)C(c1ccccc1)N2` (centres unmarked): the “hERG current change (%, negative = inhibition) at 10uM” value is on record as 6%. For `N=C1/C(=C/c2cccn2-c2cccc([N+](=O)[O-])c2)C(=O)N=C2SC=CN12` the value was 8.83%; for `O=C(CNC(=O)c1cccs1)OCC(=O)c1ccc2ccccc2c1`, 14.2%. For `COc1ccc(C(C[N+](=O)[O-])C2(c3ccc(OC)c(OC)c3)C(=O)c3ccccc3C2=O)cc1` (centres unmarked) the value was -1.26%; for `COc1ccccc1OCCNC(=O)c1ccc2c(c1)CCC2`, -5.96%; for `O=C(CN1CCN(c2nc(-c3ccccc3)cs2)CC1)NCc1ccc2c(c1)OCO2`, -5.24%. Under `Cn1nccc1NS(=O)(=O)c1ccc(F)cc1` stands 16.5%; under `CCCCNC(=O)N(C)c1nncnc1C(=O)NC`, 7.3%. On to `O=C(NCCCCc1ccccc1)C1CC(c2cccc(F)c2)=NO1` (centres unmarked), for which the “hERG current change (%, negative = inhibition) at 10uM” value was -28.1%. Under `Cc1cnc(C(=O)OC(C)C(=O)c2c(C)[nH]c3ccccc23)cn1` (centres unmarked) stands -19.9%; under `COc1ccc2c(C)cc(SCC(=O)NCCN3C(=O)CSC3=O)nc2c1`, 6.31%; under `Cc1ccc(/C=C2/Sc3ccccc3N(CC(=O)NCC3CCCO3)C2=O)cc1` (centres unmarked), 10.3%.

Consider `Cc1onc(-c2c(Cl)cccc2Cl)c1C(=O)NCCc1ccncc1`, for which the “hERG current change (%, negative = inhibition) at 10uM” value is -21.1%. For `C=CCn1c(SCc2cc(=O)n3ccsc3n2)nc2ccccc2c1=O`, the “hERG current change (%, negative = inhibition) at 10uM” value is given as 1.93%. Under `COCCCNC(=O)CN(c1cc([N+](=O)[O-])ccc1OC)S(C)(=O)=O` stands 12%; under `CC(C)CCN1CN(S(=O)(=O)c2cccs2)c2nc3ccccc3nc21`, 16.2%. With `O=C(/C=C/c1ccc(O)c(O)c1)OCCc1ccccc1`, the “hERG current change (%, negative = inhibition) at 10uM” value is recorded as -14%. Under `CCOC(OCC)c1cn(Cc2ccc(C(=O)c3ccccc3)cc2)nn1` stands -24.9%; under `Cc1nc2nc(C)c(CCC(=O)N3CCN(c4ccccc4)CC3)c(C)n2n1`, -56.2%. Under `COc1cccc(-n2c(O)c(C=NCc3ccccn3)c3ccccc3c2=O)c1` stands -26.2%. For `COc1ccc(S(=O)(=O)n2nc(C)c(S(=O)(=O)N3CCOCC3)c2C)cc1OC` the value was 12.8%.
